Results reported in the supplement of paper PMC12217912.
This is one part of the list. The full chains were built here from the parent and the listed change. Inactive controls read about 0.05.

B1: TEV protease; numbered along this chain (parent)
chain: MGESLFKGPRDYNPISSSICHLTNESDGHTTSLYGIGFGPFIITNKHLFRRNNGTLVVQSLHGVFKVKDTTTLQQHLVDGRDMIIIRMPKDFPPFPQKLKFREPQREERICLVTTNFQTKSMSSMVSDTSCTFPSGDGIFWKHWIQTKDGQCGSPLVSTRDGFIVGIHSASNFTNTNNYFTSVPKNFMELLTNQEAQQWVSGWRLNADSVLWGGHKVFMVKPEEPFQPVKEATQL

Variants of: B1
Experiment: raw area under fraction-flipped curve 0-4 h after induction (AUC4h, not background-subtracted), DNA-recorder readout of cleavage of the substrate (dimensionless); higher = more cleavage of the substrate by the protease variant
Settings: temperature: 34 °C; time window: 0-4 h after rhamnose induction
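Further: Bxb1 expression induced with 0.2% (w/v) L-rhamnose at OD600 near 0.5, cultures sampled hourly, flipped fraction per protease–substrate barcode pair counted by paired-end Illumina sequencing.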

| Variant | area with substrate ENLYFQC | area with substrate ENLYFQD | area with substrate ENLYFQE | area with substrate ENLYFQG | area with substrate ENLYFQI | area with substrate ENLYFQK | area with substrate ENLYFQL | area with substrate ENLYFQN | area with substrate ENLYFQR | area with substrate ENLYFQS |
| --- | --- | --- | --- | --- | --- | --- | --- | --- | --- | --- |
| G202F | 0.06 | 0.0581 | 0.0579 | 0.0571 | 0.0625 | 0.0561 | 0.0834 | 0.0628 | 0.0616 | 0.0625 |
| A207C | 0.108 | 0.0841 |  | 0.0849 | 0.0515 | 0.0685 | 0.0499 | 0.0859 | 0.0598 | 0.102 |
| A207I | 0.0846 | 0.0539 |  | 0.0872 | 0.0556 |  | 0.0677 |  |  | 0.0951 |
| D208C | 0.0622 |  |  | 0.0745 | 0.0389 | 0.0643 | 0.0475 | 0.0587 |  | 0.0708 |
| D208H | 0.0855 | 0.0758 |  |  | 0.0495 |  |  |  |  | 0.0764 |
| D208L | 0.0783 | 0.0505 |  |  | 0.0572 | 0.0651 |  | 0.0571 | 0.0633 | 0.0694 |
| D208M | 0.0881 |  | 0.0717 | 0.1 | 0.0583 |  | 0.0595 | 0.0878 | 0.0588 | 0.0747 |
| D208R | 0.0772 | 0.0584 |  | 0.0785 |  |  |  | 0.0694 | 0.0629 | 0.0779 |
| S209P | 0.091 |  |  | 0.0836 |  |  | 0.0428 | 0.0723 | 0.065 | 0.0894 |
| V210Y | 0.0908 | 0.0404 |  | 0.0904 | 0.0401 | 0.0557 | 0.0494 | 0.0603 | 0.0583 | 0.0986 |
| K216C | 0.12 |  |  |  |  |  | 0.0564 |  |  | 0.0953 |
| K216M | 0.103 | 0.0856 |  |  | 0.0504 |  | 0.0697 |  |  | 0.0972 |
| K216N | 0.108 |  |  | 0.0886 | 0.0769 |  | 0.0646 | 0.0937 | 0.0694 | 0.103 |
| K216V | 0.105 | 0.0876 |  | 0.0894 | 0.0668 | 0.0475 | 0.0598 | 0.0689 |  | 0.0979 |
| K221E | 0.102 | 0.0202 |  | 0.0894 | 0.0484 | 0.0411 | 0.0478 | 0.0803 | 0.0509 | 0.107 |
| P222W | 0.171 |  |  | 0.101 | 0.0579 | 0.0647 |  | 0.0754 | 0.0385 | 0.087 |
| E223L | 0.0978 | 0.0701 |  | 0.0614 | 0.069 | 0.0628 | 0.0587 | 0.0766 | 0.0372 | 0.0908 |
| E224L | 0.103 | 0.0981 |  | 0.0735 | 0.0528 | 0.0623 | 0.0633 | 0.0874 |  | 0.0924 |
| P228F | 0.0395 | 0.073 |  |  |  | 0.052 |  | 0.067 |  | 0.0933 |
| A232Q | 0.128 |  |  | 0.0928 | 0.0593 | 0.0689 | 0.0469 |  |  | 0.107 |
| L5R |  | 0.136 |  |  |  |  | 0.0593 |  |  | 0.111 |
| G35K |  | 0.0495 |  |  |  |  |  |  |  | 0.0477 |
| V64A |  | 0.0801 |  | 0.0764 | 0.0556 | 0.071 | 0.0426 |  |  | 0.0945 |
| Q74S |  | 0.0602 | 0.0586 |  | 0.0707 | 0.067 | 0.0672 | 0.0814 | 0.064 | 0.0886 |
| Q75N |  | 0.0497 |  |  | 0.0581 | 0.0622 | 0.0438 | 0.0568 | 0.0574 | 0.0823 |
| T115G |  | 0.0685 |  |  |  | 0.079 |  | 0.0712 | 0.0741 | 0.0954 |
| T132M |  | 0.0531 |  | 0.0894 | 0.0527 | 0.059 | 0.0615 | 0.0782 | 0.0571 | 0.0969 |
| I145E |  | 0.0454 |  |  |  |  |  |  | 0.0551 | 0.0664 |
| G153R |  | 0.0515 |  |  | 0.0563 |  |  |  |  | 0.0514 |

Same assay, conditions: temperature: 34 °C; time window: 0-4 h after rhamnose induction

| Variant | area with substrate ENLYFQT | area with substrate ENLYFQV | area with substrate ENLYFQW | area with substrate ENLYFQH | area with substrate ENLYFQP | area with substrate ENLYFQQ | area with substrate ENLYFQY | area with substrate ENLYFQF | area with substrate ENLYFQM |
| --- | --- | --- | --- | --- | --- | --- | --- | --- | --- |
| G202F | 0.0628 | 0.0616 | 0.0432 |  |  |  |  |  |  |
| A207C | 0.0674 |  | 0.069 | 0.08 | 0.0566 | 0.0749 | 0.0874 |  |  |
| A207I | 0.0662 |  |  |  | 0.0566 |  | 0.0864 | 0.0678 | 0.0901 |
| D208C | 0.0713 | 0.0652 | 0.0676 | 0.051 | 0.0534 | 0.0478 | 0.0632 |  | 0.0677 |
| D208H |  | 0.0589 | 0.0525 | 0.0689 | 0.0685 | 0.0165 | 0.0659 |  |  |
| D208L |  |  |  |  |  | 0.0483 |  | 0.0382 | 0.0642 |
| D208M | 0.0359 | 0.0586 | 0.0482 | 0.0687 | 0.0608 |  |  |  | 0.0649 |
| D208R | 0.0426 |  | 0.0626 |  | 0.0654 |  | 0.0524 |  |  |
| S209P |  |  |  | 0.0653 |  |  | 0.066 |  |  |
| V210Y | 0.0772 | 0.0583 | 0.066 |  | 0.0513 |  |  | 0.058 | 0.0743 |
| K216C | 0.0655 |  |  |  |  | 0.0664 |  |  | 0.0767 |
| K216M |  |  | 0.0536 |  |  |  | 0.0497 | 0.0733 |  |
| K216N | 0.0722 | 0.0792 | 0.0698 |  | 0.0514 |  | 0.0912 |  |  |
| K216V | 0.0646 | 0.0525 |  | 0.0698 | 0.0621 |  | 0.0838 |  |  |
| K221E | 0.0627 | 0.0536 | 0.0511 | 0.0652 | 0.0652 |  | 0.0492 |  | 0.0441 |
| P222W | 0.0615 | 0.0557 |  | 0.0489 | 0.0913 | 0.128 |  |  | 0.0726 |
| E223L | 0.0669 | 0.0675 | 0.0636 | 0.0726 | 0.0669 | 0.0584 | 0.0694 |  | 0.0811 |
| E224L | 0.077 |  | 0.0432 | 0.05 |  |  |  |  | 0.0835 |
| P228F | 0.0736 | 0.0743 |  | 0.077 | 0.0688 |  |  |  |  |
| A232Q | 0.0413 | 0.0634 | 0.0506 |  | 0.0589 |  | 0.0984 | 0.103 | 0.0975 |
| L5R |  |  | 0.07 |  |  |  |  |  |  |
| G35K |  |  | 0.039 |  |  |  | 0.0573 |  | 0.0464 |
| V64A | 0.0667 |  | 0.0658 |  | 0.0234 |  | 0.0995 | 0.0804 | 0.0723 |
| Q74S | 0.0727 | 0.05 |  | 0.0912 | 0.0673 |  | 0.112 | 0.0959 |  |
| Q75N | 0.0519 |  |  |  |  |  |  |  | 0.0406 |
| T115G | 0.0563 | 0.0591 | 0.053 |  |  |  | 0.0669 |  |  |
| T132M | 0.0626 |  | 0.0667 |  |  |  | 0.081 | 0.0714 | 0.0818 |
| I145E | 0.0453 |  | 0.0543 |  |  |  |  | 0.0598 | 0.063 |
